{"source": "ChEMBL document CHEMBL4888484", "about": "“Replenishing the malaria drug discovery pipeline: Screening and hit evaluation of the MMV Hit Generation Library 1 (HGL1) against asexual blood stage Plasmodium falciparum ,using a nano luciferase reporter read-out” (2022)", "note": "Among all 150,000 compounds or so, about 540 (0.36%) showed an effect of 50% or more. This is one part of the list."}
{"test_system": "Plasmodium falciparum", "assay": "Primary screen in NF54 nanoGlo assay, in single point, at 2uM, 72h; a lower Z score goes with more inhibition", "assay_type": "functional, Erythrocyte", "settings": "timepoint 72 hour", "units": {"% Inhibition": "%"}}
{"smiles": "CC[C@H](Oc1ccccc1C)c1nnc(C2(c3ccccc3)CC2)o1", "% Inhibition": -15, "Z score": 1.76}
{"smiles": "c1cc(CN2C[C@@H]3CC[C@H]2CN(C2CCOCC2)C3)c2cccnc2c1", "% Inhibition": -19, "Z score": 1.72}
{"smiles": "CC(C)(C)c1ccn(C2(C(=O)O)CCN(C(=O)c3ccoc3)CC2)n1", "% Inhibition": -27, "Z score": 2.34}
{"smiles": "O=C(NCCNC(=O)c1ccco1)c1csc(-c2ccco2)n1", "% Inhibition": 25, "Z score": -3.43}
{"smiles": "CC(C)(C)c1nc(CNc2[nH]ncc2C(N)=O)cs1", "% Inhibition": 11, "Z score": -1.42}
{"smiles": "CN1CCN([C@H]2CCN(c3ccc(C(F)(F)F)cn3)C[C@H]2CCCO)CC1", "% Inhibition": -6, "Z score": 0.82}
{"smiles": "Cc1cc2c(cc1C(=O)N1CCO[C@H]3CCCC[C@@H]31)OCCO2", "% Inhibition": 2, "Z score": -0.23}
{"smiles": "O=C(NCCc1ccncc1)c1cnc2c(Cl)cccc2c1O", "% Inhibition": -10, "Z score": 1.85}
{"smiles": "Cc1sccc1C(=O)NCC(F)F", "% Inhibition": 5, "Z score": -0.73}
{"smiles": "CCOc1ccc(NC(=O)N2CCC(n3cnc4c(Cl)cccc4c3=O)CC2)cc1", "% Inhibition": -4, "Z score": 0.41}
{"smiles": "Cc1cccc([C@H]2c3cc(OCC(=O)NCc4ccccn4)ccc3CCN2C(=O)c2ccccc2)c1", "% Inhibition": 5, "Z score": -0.58}
{"smiles": "Cc1cnc(NC(=O)c2ccccc2-c2ccccc2)s1", "% Inhibition": 4, "Z score": -0.75}
{"smiles": "CCCC[C@H](CC)C(=O)Nc1cc(C)ccn1", "% Inhibition": 32, "Z score": -4.18}
{"smiles": "Oc1ccc(Cl)cc1-c1cc(-c2ccc(Cl)cc2)cc(-c2ccccc2)n1", "% Inhibition": -18, "Z score": 1.95}
{"smiles": "CCc1nnc2ccc(N3CCC4(CCCCC4)C3)nn12", "% Inhibition": 12, "Z score": -1}
{"smiles": "COc1ccc(-n2cc([C@H](C)Nc3nc(C)nc4c3c(C)nn4C)cn2)cc1", "% Inhibition": -8, "Z score": 1}
{"smiles": "Cc1ccc(CNC(=O)[C@H]2CCCN(S(=O)(=O)c3ccccc3)CCc3nnc(-c4cccnc4)n3CC2)o1", "% Inhibition": -2, "Z score": 0.3}
{"smiles": "CCN(CC)C(=O)CN1CCCN(c2nc(CN3CCC(C)CC3)nc3sc(C)c(C)c23)CC1", "% Inhibition": 2, "Z score": -0.21}
{"smiles": "C[C@@H](C(=O)NC1CCCC1)N1CCN(CC2CCC(c3ccccc3)CC2)CC1", "note": "(stereo not given in full)", "% Inhibition": -10, "Z score": 1.66}
{"smiles": "CCc1nc2c(c(=O)[nH]1)C[C@H]1CC[C@@H](C2)N1C(=O)CCS(=O)(=O)c1ccccc1", "% Inhibition": 8, "Z score": -1.16}
{"smiles": "CCOc1cc(Cl)ccc1C(=O)OCc1nnc(C)n1C", "% Inhibition": -9, "Z score": 1.21}
{"smiles": "O=C(NC1CC1)[C@@H]1CCCN1c1ccncc1Cl", "% Inhibition": -10, "Z score": 0.99}
{"smiles": "CC(=O)N1CCC[C@H](c2[nH]ccc2C(=O)Nc2ccc(OC(F)(F)F)cc2)C1", "% Inhibition": -16, "Z score": 2.04}
{"smiles": "Cc1ccc(S(=O)(=O)Nc2nc3c(s2)COCC3)cc1C", "% Inhibition": -7, "Z score": 0.96}
{"smiles": "c1ccc2c(c1)CCC(NC[C@@H]1CCCN1)CC2", "% Inhibition": 5, "Z score": -1.09}
{"smiles": "Cc1ccc(CNC(=O)Cn2cncc(C(=O)NC3CCCC3)c2=O)cc1", "% Inhibition": 3, "Z score": -0.53}
{"smiles": "Cc1cnc(-c2ccccc2)n1C1CN(C(=O)CC(C)C)C1", "% Inhibition": 1, "Z score": -0.11}
{"smiles": "O=C(c1nc(-c2csc(S(=O)(=O)N3CCCCC3)c2)no1)N1CCCC1", "% Inhibition": -4, "Z score": 0.51}
{"smiles": "Cc1cccc(NC(=O)c2ccc(C)nc2C2CCN(C(=O)COc3ccc(Cl)cc3)CC2)c1", "% Inhibition": -12, "Z score": 2.24}
{"smiles": "Cc1occc1C(=O)Nc1ccc(F)cc1NC1CC1", "% Inhibition": 10, "Z score": -1.97}
{"smiles": "O=C(COc1ccccc1)Nc1ccc(-c2ccccn2)cn1", "% Inhibition": -9, "Z score": 1.22}
{"smiles": "Cn1cc(C(=O)N2CC[C@H](O)CC23CCC3)c2ccccc21", "% Inhibition": -3, "Z score": 0.43}
{"smiles": "CC(C)(CN1CCCCC1)NC(=O)c1csc(N)n1", "% Inhibition": -10, "Z score": 1.8}
{"smiles": "CCN(CC)C(=O)[C@@H]1C[C@H](NC(=O)Cc2cccnc2)CN1C1CCCC1", "% Inhibition": -14, "Z score": 1.32}
{"smiles": "COc1ccc(Cl)cc1[C@H](C)NCc1ncnn1C", "% Inhibition": -11, "Z score": 1.59}
{"smiles": "O=C(O)Cc1ccccc1CN1CCOCC1CC1CCCO1", "note": "(stereo not given)", "% Inhibition": -16, "Z score": 2.59}
{"smiles": "Cc1cc2c(cc1S(=O)(=O)N1CCC[C@H](C(=O)NC3CCCC3)C1)OCC(=O)N2", "% Inhibition": -3, "Z score": 0.3}
{"smiles": "O=C(NC[C@H]1CCN(C2CCCCC2)C1)c1cc(O)ccc1F", "% Inhibition": -19, "Z score": 2}
{"smiles": "CCNc1ncc(CN2CCC(C(=O)N3CCCC3)CC2)cn1", "% Inhibition": -18, "Z score": 2.4}
{"smiles": "COCCOc1ccc(-c2cccc3c(N)ccnc23)cc1", "% Inhibition": -11, "Z score": 1.22}
{"smiles": "CCc1csc(NC(=O)NC(C)C2CCCO2)n1", "note": "(stereo not given)", "% Inhibition": -3, "Z score": 0.23}
{"smiles": "Cc1nc(CNC(=O)N2CCOCC2)cs1", "% Inhibition": -6, "Z score": 0.8}
{"smiles": "COc1ccccc1C1=NS(=O)(=O)N(C)C(C(=O)N2CCCC2)=C1", "% Inhibition": -18, "Z score": 3.52}
{"smiles": "CCc1noc(Cn2c(=O)ccn(Cc3cccc(Br)c3)c2=O)n1", "% Inhibition": -5, "Z score": 0.73}
{"smiles": "C[C@H](CNC(=O)N1CC(O)C1)Cc1cccc2ccccc12", "% Inhibition": 1, "Z score": -0.26}
{"smiles": "CC[n+]1c(C)n(C2CCCCC2)c2ccc(C(=O)OC)cc21", "% Inhibition": 27, "Z score": 0.03}
{"smiles": "Cc1cc(C(NC(C)c2ccccn2)C2CC2)ccc1F", "note": "(stereo not given)", "% Inhibition": -8, "Z score": 1.42}
{"smiles": "Cc1cc2c(cc1S(=O)(=O)CCC(=O)NCc1ccccc1)OCC(=O)N2", "% Inhibition": -10, "Z score": 1.57}
{"smiles": "O=C(NCc1cccc(Cl)c1)c1cn2ccncc2n1", "% Inhibition": -7, "Z score": 1.06}
{"smiles": "CCC#CCN1CCC(CNC(=O)c2oc(C)nc2C)CC1", "% Inhibition": -1, "Z score": 0.1}
{"smiles": "CN(CCNC(=O)CCc1cn(-c2ccccc2)nc1-c1ccc2c(c1)OCO2)C1CCCCC1", "% Inhibition": 63, "Z score": -8.26}
{"smiles": "CN1CC(C)(O)C(O)(C#Cc2ccccc2)CC1c1ccccc1", "note": "(stereo not given)", "% Inhibition": 34, "Z score": -3.89}
{"smiles": "Cc1cc(-c2ccc(C(=O)N3C[C@H]4CN(C)C[C@H]4C3)cc2)c(Cl)cc1F", "% Inhibition": 6, "Z score": -1.17}
{"smiles": "CC1=Nc2ccccc2N=C(NC(=O)CN2CCCCCC2)[C@H]1c1ccccc1", "% Inhibition": -10, "Z score": 1.34}
{"smiles": "CC(C)c1nn(C)cc1NC(=O)NCCN1CCC(C)(C)C1", "% Inhibition": 1, "Z score": -0.14}
{"smiles": "Cn1c(C2CC2)nc2cc(NC(=O)[C@@H]3CCCN3)ccc21", "% Inhibition": 0, "Z score": -0.04}
{"smiles": "Cc1ccc(CN(C[C@H]2CCCO2)C(=O)COc2ccc(Cl)cc2C)o1", "% Inhibition": -13, "Z score": 2.05}
{"smiles": "O=S(=O)(c1ccc2c(c1)CCO2)N1CCCN(C2CCC2)CC1", "% Inhibition": -21, "Z score": 3.6}
{"smiles": "Nc1ccc(N2N=C(c3ccccc3)CC2=O)nc1", "% Inhibition": -14, "Z score": 1.23}
{"smiles": "CC(C)N1CCc2nnc(C3CCN(C(=O)c4cccs4)CC3)n2CC1", "% Inhibition": 3, "Z score": -0.48}
{"smiles": "CC[C@H](C)NC(=O)c1ccn2c(-c3ccc(Cl)cc3)nnc2c1", "% Inhibition": -3, "Z score": 0.38}
{"smiles": "Cc1ccc(N2C[C@@H](C(=O)Nc3cc(-c4noc(C5CC5)n4)sc3C)CC2=O)cc1", "% Inhibition": -8, "Z score": 0.76}
{"smiles": "Cc1csc(CC2(O)CCN(C(=O)c3ccc(C)c(C)c3)CC2)n1", "% Inhibition": -1, "Z score": 0.21}
{"smiles": "COc1ccc(Cc2nc(-c3csc(C)n3)n(C)n2)cc1OC", "% Inhibition": -8, "Z score": 1.01}
{"smiles": "OC[C@@H]1N[C@H](c2cccc(-n3cccn3)c2)[C@@H]2CN(c3ccccc3)C[C@@H]21", "% Inhibition": -11, "Z score": 1.07}
{"smiles": "Cc1n[nH]nc1C(=O)N1CCN(Cc2ccccc2)C(=O)C1", "% Inhibition": -26, "Z score": 3.38}
{"smiles": "Cc1cc([C@H](C)NC(=O)N2CCC2)c(C)s1", "% Inhibition": 15, "Z score": -1.78}
{"smiles": "CC1CCCC(C)N1C(=O)CN(CCO)Cc1ccsc1", "note": "(stereo not given)", "% Inhibition": 9, "Z score": -1.01}
{"smiles": "Cc1nc(Cn2ncc3ccccc32)n(CCO)n1", "% Inhibition": 10, "Z score": -1.42}
{"smiles": "CC(C)c1ccc(NS(=O)(=O)c2ccc(-c3[nH]ncc3C(=O)N3CCCCC3)o2)cc1", "% Inhibition": 3, "Z score": -0.3}
{"smiles": "Cn1ccnc1C1CCCCN1C(=O)CC1(c2ccccc2)CC(=O)N(Cc2ccncc2)C1=O", "note": "(stereo not given)", "% Inhibition": 5, "Z score": -0.6}
{"smiles": "O=C(c1cccc2c1CCCC2)N1CCC(O)(Cn2ccnn2)CC1", "% Inhibition": 12, "Z score": -1.65}
{"smiles": "Cn1nncc1S(=O)(=O)NCCOC1CCCCCC1", "% Inhibition": -9, "Z score": 0.73}
{"smiles": "O=C(NC[C@H](CC1CC1)C(=O)O)c1ccc2ccncc2c1", "% Inhibition": -2, "Z score": 0.37}
{"smiles": "CCn1cnnc1C[C@H]1CCCN(C(=O)NC2CCCC2)C1", "% Inhibition": -5, "Z score": 0.6}
{"smiles": "Cc1nccc(CNC(=O)c2cccc(-c3noc(C4CC4)n3)c2)n1", "% Inhibition": -16, "Z score": 1.65}
{"smiles": "Cc1ccc(C(=O)N[C@H]2CCCNC2)cc1NC(=O)c1ccc(Br)cc1", "% Inhibition": 31, "Z score": -3.96}
{"smiles": "CNc1nc(NCCc2ccccc2)nc2ccccc12", "% Inhibition": 83, "Z score": -8.48}
{"smiles": "Cc1cc(C)nc(O[C@H]2CC[C@H](NS(=O)(=O)c3c(C)noc3C)CC2)n1", "% Inhibition": -6, "Z score": 1.04}
{"smiles": "CCCNC(=O)c1nnn2c1c(=O)[nH]c1ccccc12", "% Inhibition": 1, "Z score": -0.27}
{"smiles": "CC[C@H](C)[C@@H](C(=O)NCCc1ccncc1)n1cnnn1", "% Inhibition": -1, "Z score": 0.1}
{"smiles": "Cn1c(C[C@H]2CN(CC3CCCCC3)CC[C@H]2CC(=O)O)nc2ccccc21", "% Inhibition": -3, "Z score": 0.48}
{"smiles": "COC[C@@H](O)CNC(=O)Cn1cc(Cl)c(C)n1", "% Inhibition": -4, "Z score": 0.61}
{"smiles": "C[C@@H]1CN(Cc2cscn2)CCN1C(=O)OC(C)(C)C", "% Inhibition": 0, "Z score": -0.06}
{"smiles": "Cc1cccc(C(=O)N(CC2CCN(Cc3ccccc3F)CC2)C[C@H]2CCCO2)n1", "% Inhibition": 9, "Z score": -1.21}
